Measurements reported in patent publication US20250215093A1 (ZYTOX THERAPEUTICS, published 2025).

Target: T1, Human serum albumin (human, UniProt P02768)
T1 construct: also called HSA
Experiment: SPR, ZB05 injected over immobilised HSA

B1: ZB05 anti-idiotypic affibody masking domain (designed binder)
chain: VDAKYAKEIRSATEIWWLPNLTADQKWAFIYKLVDDPSQSSELLSEAKKLNDSQAPK
notes: Soluble monomer with C-terminal His-tag (7.6 kDa) in SPR; also called ZB05 masking candidate; not shown: C-terminal His-tag of the soluble monomer
  binding result: no binding
